Reference: the antibiotic and cytotoxicity screens of Wong et al. (2023)
This is one part of the list.

Columns and labels:
HSkMC = human skeletal muscle cells; test: cytotoxicity call (relative viability < 0.9); conditions: 10 µM
HepG2 = test: cytotoxicity call (relative viability < 0.9); conditions: 10 µM
S. aureus RN4220 = test: growth inhibition call (relative growth <= 0.2); conditions: 50 µM

COc1ccc(S(=O)(=O)N(C)C[C@H]2Oc3ccc(NC(=O)c4ccncc4)cc3C(=O)N([C@H](C)CO)C[C@H]2C)cc1
cytotoxicity call (HSkMC): inactive
cytotoxicity call (HepG2): inactive
growth inhibition call (S. aureus RN4220): inactive

C[C@@H]1CN([C@@H](C)CO)C(=O)c2cc(NS(=O)(=O)c3cn(C)cn3)ccc2O[C@@H]1CN(C)Cc1ccc2c(c1)OCO2
cytotoxicity call (HSkMC): inactive
cytotoxicity call (HepG2): inactive
growth inhibition call (S. aureus RN4220): inactive

COC(=O)CNC(=O)c1ccc(S(=O)(=O)N2CCOCC2)cc1
cytotoxicity call (HSkMC): inactive
cytotoxicity call (HepG2): inactive
growth inhibition call (S. aureus RN4220): inactive

N=C(N)Nc1nc(CSCC/C(N)=N\S(N)(=O)=O)cs1
cytotoxicity call (HSkMC): inactive
cytotoxicity call (HepG2): inactive
growth inhibition call (S. aureus RN4220): inactive

CC(Cc1ccc(O)c(O)c1)C(C)Cc1ccc(O)c(O)c1 (stereo not given)
cytotoxicity call (HSkMC): inactive
cytotoxicity call (HepG2): inactive
growth inhibition call (S. aureus RN4220): inactive

CCCN(C)C[C@@H]1OCCCC[C@@H](C)Oc2ccc(NC(=O)Cc3ccccc3)cc2C(=O)N([C@H](C)CO)C[C@@H]1C
cytotoxicity call (HSkMC): inactive
cytotoxicity call (HepG2): inactive
growth inhibition call (S. aureus RN4220): inactive

C=CCN(CC=C)S(=O)(=O)c1nnc[nH]1
cytotoxicity call (HSkMC): inactive
cytotoxicity call (HepG2): inactive
growth inhibition call (S. aureus RN4220): inactive

Nc1ccc(-n2nn[nH]c2=S)cc1
cytotoxicity call (HSkMC): inactive
cytotoxicity call (HepG2): inactive
growth inhibition call (S. aureus RN4220): inactive

C[C@@H]1CCCCO[C@H](CN(C)Cc2ccc(C(=O)O)cc2)[C@@H](C)CN([C@H](C)CO)C(=O)c2cc(NC(=O)NC3CCCCC3)ccc2O1
cytotoxicity call (HSkMC): inactive
cytotoxicity call (HepG2): inactive
growth inhibition call (S. aureus RN4220): inactive

COCC#Cc1ccc2c(c1)O[C@@H](CN(C)C(=O)Nc1ccc(OC)cc1)[C@@H](C)CN([C@@H](C)CO)S2(=O)=O
cytotoxicity call (HSkMC): inactive
cytotoxicity call (HepG2): inactive
growth inhibition call (S. aureus RN4220): inactive

C[C@@H]1CN([C@H](C)CO)C(=O)c2c(c3ccccc3n2C)-c2ccccc2CO[C@@H]1CN(C)C(=O)NC1CCCCC1
cytotoxicity call (HSkMC): inactive
cytotoxicity call (HepG2): inactive
growth inhibition call (S. aureus RN4220): inactive

COc1ccccc1-c1cccc(-c2nc(C(=O)N3CCCCC3)cc3c2[C@H](CCO)N([S@@](=O)C(C)(C)C)C3)c1
cytotoxicity call (HSkMC): inactive
cytotoxicity call (HepG2): inactive
growth inhibition call (S. aureus RN4220): inactive

COc1ccc(NC(=O)Nc2cccc3c2O[C@H](CN(C)C(=O)Nc2cccc4ccccc24)[C@H](C)CN([C@@H](C)CO)C3=O)cc1
cytotoxicity call (HSkMC): inactive
cytotoxicity call (HepG2): inactive
growth inhibition call (S. aureus RN4220): inactive

CN(C)CCCNC(=O)C[C@H]1CC[C@H]2[C@@H](COC[C@@H](O)CN2S(=O)(=O)c2ccc(Cl)cc2)O1
cytotoxicity call (HSkMC): inactive
cytotoxicity call (HepG2): inactive
growth inhibition call (S. aureus RN4220): inactive

COc1ccc(NC(=O)N(C)C[C@H]2Oc3ccc(NC(=O)CCN4CCOCC4)cc3CC(=O)N([C@@H](C)CO)C[C@@H]2C)cc1
cytotoxicity call (HSkMC): inactive
cytotoxicity call (HepG2): inactive
growth inhibition call (S. aureus RN4220): inactive

C[C@@H]1CN([C@@H](C)CO)C(=O)c2cc(NS(=O)(=O)c3ccccc3)ccc2O[C@@H](C)CCCCO[C@@H]1CN(C)C(=O)Nc1ccc2c(c1)OCO2
cytotoxicity call (HSkMC): inactive
cytotoxicity call (HepG2): inactive
growth inhibition call (S. aureus RN4220): inactive

C[C@H](CO)N1C[C@H](C)[C@@H](CN(C)C(=O)Nc2cccc3ccccc23)Oc2ccc(NC(=O)Nc3cccc4ccccc34)cc2C1=O
cytotoxicity call (HSkMC): inactive
cytotoxicity call (HepG2): inactive
growth inhibition call (S. aureus RN4220): inactive

Cc1noc(C)c1S(=O)(=O)Nc1ccc2c(c1)C(=O)N([C@H](C)CO)C[C@@H](C)[C@@H](CN(C)S(C)(=O)=O)O2
cytotoxicity call (HSkMC): inactive
cytotoxicity call (HepG2): inactive
growth inhibition call (S. aureus RN4220): inactive

C[C@@H]1CN([C@@H](C)CO)C(=O)c2cccc(NC(=O)Nc3ccccc3)c2O[C@@H]1CN(C)Cc1ccc(Oc2ccccc2)cc1
cytotoxicity call (HSkMC): inactive
cytotoxicity call (HepG2): active
growth inhibition call (S. aureus RN4220): inactive

C[C@H](CO)N1C[C@H](C)[C@H](CN(C)S(=O)(=O)c2cn(C)cn2)Oc2ccc(NS(=O)(=O)c3cccs3)cc2C1=O
cytotoxicity call (HSkMC): inactive
cytotoxicity call (HepG2): inactive
growth inhibition call (S. aureus RN4220): inactive

C[C@H]1CN([C@@H](C)CO)C(=O)c2cc(NC(=O)CCCN(C)C)ccc2O[C@@H]1CN(C)Cc1ccccc1
cytotoxicity call (HSkMC): inactive
cytotoxicity call (HepG2): inactive
growth inhibition call (S. aureus RN4220): inactive

O=S1(=O)OC(c2ccc(O)cc2)(c2ccc(O)cc2)c2ccccc21
cytotoxicity call (HSkMC): inactive
cytotoxicity call (HepG2): inactive
growth inhibition call (S. aureus RN4220): inactive

CN1C(=O)c2cc(NC(=O)c3ccc(F)cc3)ccc2OC[C@H]2O[C@@H](CC(=O)N3CCOCC3)CC[C@@H]21
cytotoxicity call (HSkMC): inactive
cytotoxicity call (HepG2): inactive
growth inhibition call (S. aureus RN4220): inactive

C[C@H](CO)N1C[C@H](C)[C@@H](CN(C)S(=O)(=O)c2ccc(Cl)cc2)Oc2ccc(NC(=O)Nc3cccc4ccccc34)cc2C1=O
cytotoxicity call (HSkMC): inactive
cytotoxicity call (HepG2): inactive
growth inhibition call (S. aureus RN4220): inactive

COc1ccc(NC(=O)N(C)C[C@@H]2OCCCC[C@H](C)Oc3ccc(NC(=O)c4ccncc4)cc3C(=O)N([C@H](C)CO)C[C@H]2C)cc1
cytotoxicity call (HSkMC): inactive
cytotoxicity call (HepG2): inactive
growth inhibition call (S. aureus RN4220): inactive

CC1CC2C3CCC4=CC(=O)C=CC4(C)C3(Cl)C(O)CC2(C)C1(OC(=O)c1ccco1)C(=O)CCl (stereo not given)
cytotoxicity call (HSkMC): active
cytotoxicity call (HepG2): active
growth inhibition call (S. aureus RN4220): inactive

COc1ccc(CN(C)C[C@@H]2Oc3ccc(NS(=O)(=O)c4cn(C)cn4)cc3CC(=O)N([C@H](C)CO)C[C@H]2C)cc1
cytotoxicity call (HSkMC): inactive
cytotoxicity call (HepG2): inactive
growth inhibition call (S. aureus RN4220): inactive

COc1ccc(NC(=O)N(C)C[C@H]2Oc3c(NC(=O)c4cnccn4)cccc3C(=O)N([C@H](C)CO)C[C@@H]2C)cc1
cytotoxicity call (HSkMC): inactive
cytotoxicity call (HepG2): inactive
growth inhibition call (S. aureus RN4220): inactive

C[C@H]1CCCCO[C@@H](CN(C)S(=O)(=O)c2ccc(Cl)cc2)[C@@H](C)CN([C@@H](C)CO)C(=O)c2cc(NS(=O)(=O)c3ccccc3)ccc2O1
cytotoxicity call (HSkMC): inactive
cytotoxicity call (HepG2): inactive
growth inhibition call (S. aureus RN4220): inactive

C=CCC[C@@H](Cc1ccc(F)cc1)C(=O)OC[C@H](Cc1c[nH]c2ccccc12)NC(=O)[C@H](CC=C)CC(=O)N(CCO)Cc1ccccc1
cytotoxicity call (HSkMC): inactive
cytotoxicity call (HepG2): inactive
growth inhibition call (S. aureus RN4220): inactive
